# According to PubChem BioAssay AID463173 (ICCB-Longwood Screening Facility, Harvard Medical School, 2010):
# Among all 52,000 compounds or so, about 1,700 (3.3%) were called active. Cut-off read from the data, not from the text of the source: active = survival mostly below about 52% (no sharp cut-off); inactive = mostly above about 56%. Some of the results follow.
# Test system: Wild type
# Test: growth inhibition of S. aureus wild type versus tarO mutant, primary screen, teichoic acid synthesis inhibitors, RN4220, OD600 (AID 463173)
# Conditions: S. aureus RN4220 wild type/DeltatarO growth, OD600, 18 h, active compounds read low, screened at 18.75 µg/mL (by protocol)
row,SMILES,survival
1,CCN(C(=O)CSc1nnc(-c2ccc(Cl)cc2)o1)c1ccccc1,inactive: 66%
2,CC1CCCCC1NC(=O)CSc1nccc(=O)[nH]1 (stereo not drawn),inactive: 96%
3,COC(=O)c1ccc(CSc2nc3c([nH]c4ccccc43)c(=O)n2-c2cccc(OC)c2)o1,inactive: 47%
4,Cc1ccnc(NS(=O)(=O)c2ccc(NC(=O)c3cc(=O)c4ccc(C)c(C)c4o3)cc2)n1,inactive: 85%
5,CNCCCc1cc(C)ccc1O,inactive: 105%
6,Cc1ccc2nc(N3CCN(C(=O)C4COc5ccccc5O4)CC3)sc2c1 (stereo not drawn),inactive: 71%
7,COc1ccc(CNC(=O)c2cc3c(=O)n(Cc4cccs4)ccc3nc2C)cc1,active: 10%
8,COc1ccc(-c2nc3ccccc3o2)cc1NC(=O)c1ccc(N2CCC(C)CC2)c([N+](=O)[O-])c1,inactive: 71%
9,CC(Sc1nnc(-c2ccc3c(c2)OCO3)o1)C(N)=O (stereo not drawn),inactive: 94%
10,Cc1nn(Cc2ccccc2)c(C)c1NC(=O)c1cc(C(C)C)on1,inactive: 77%
11,CCOC(=O)c1sc(NC(=O)c2nc(SCC)ncc2Cl)c(C(=O)OCC)c1C,inactive: 118%
12,CN(C)CCNC(=O)Cc1ccc(NC(=O)N2CCCCc3ccccc32)cc1,inactive: 75%
13,CCOC(=O)c1cc(-c2ccc(C)cc2)n(CC(=O)Nc2cccc(C(C)=O)c2)c1C,inactive: 124%
14,COc1ccc(Cl)cc1NC(=O)c1c(C(=O)Nc2cccc(C)c2C)sc2nc(C)cc(=O)n12,inactive: 89%
15,Cc1ccc(C(=O)c2cn(Cc3ccc(F)cc3)c3nc(C)ccc3c2=O)cc1,inactive: 95%
16,COc1ccc(OCc2nnc(SCC(=O)N3C(C)CCCC3C)o2)cc1 (stereo not drawn),inactive: 103%
17,COCCCn1c(=N)c(S(=O)(=O)c2ccccc2)cc2c(=O)n3cccc(C)c3nc21,inactive: 75%
18,CC1(C)CC(=O)c2cc(C(=O)Nc3ccc(Br)cc3)c(=O)n(-c3ccc(Cl)cc3)c2C1,inactive: 74%
19,COc1ccccc1OCC(O)CN1CCOCC1 (stereo not drawn),inactive: 105%
20,Cc1oc(-c2ccccc2F)nc1Cn1c(SCc2ccccc2F)nc2ccncc21,inactive: 73%

row,SMILES,survival
1,CCn1cc2nc(SCc3cc(C)ccc3C)n(Cc3ccc(C)cc3)c(=O)c2n1,inactive: 66%
2,Cc1ccccc1OCc1nc2c3cnn(-c4ccccc4Br)c3ncn2n1,inactive: 87%
3,COc1ccccc1N1CCN(C(=O)CCSCc2ccccc2F)CC1,inactive: 76%
4,COc1ccc(Nc2oc(/C=C/c3ccc(F)cc3)nc2C#N)cc1,inactive: 104%
5,Cc1ccc(C2c3cccn3CCN2S(=O)(=O)c2ccc([N+](=O)[O-])cc2)cc1 (stereo not drawn),inactive: 95%
6,COc1ccc(N2CC(NC(=O)c3cccs3)CC2=O)cc1OC (stereo not drawn),inactive: 72%
7,O=S(=O)(NCCc1csc(-c2ccc(F)cc2)n1)c1ccc(F)cc1F,inactive: 112%
8,COC(=O)c1cccc(NC(=O)COC(=O)c2ccco2)c1,inactive: 100%
9,CCc1ccc(-c2[nH]c3c(c2-c2c(-n4cccc4)n(C)c(=O)[nH]c2=O)c(=O)[nH]c(=O)n3C)cc1,inactive: 93%
10,CC(=O)Nc1ccc(NS(=O)(=O)c2ccc3c(c2)CCCN3C(C)=O)cc1,inactive: 68%
11,O=C(Nc1nnc(S(=O)(=O)N2CCCCC2)s1)c1ccc(Cl)cc1,inactive: 48%
12,COc1ccc(-n2ncc(C(=O)Nc3ccc(C)cc3Cl)c2C2CCN(C(=O)OC(C)(C)C)CC2)cc1,inactive: 51%
13,CCCCn1c(SCC(=O)Nc2ccccc2)nc2ccccc2c1=O,inactive: 99%
14,CCN(CC)C(=O)CSc1nnc(COc2ccc(Br)cc2)o1,inactive: 102%
15,O=C(NCC1CCCO1)c1cccc(C(=O)NCC2CCCO2)c1 (stereo not drawn),inactive: 101%
16,CCN(CC)CCNC(=O)C1CCCN(c2nnc(C)c3c(C)n(-c4ccc(Cl)cc4)nc23)C1 (stereo not drawn),inactive: 126%
17,CCOc1ccc(-c2cn3c(n2)sc2cc(C(=O)NCCC4=CCCCC4)ccc23)cc1,inactive: 103%
18,CCOc1ccc(NC(=O)CSc2nnc(CC)c(CC)n2)cc1,inactive: 58%
19,COc1ccccc1CNC(=O)c1ccc(NC(=O)N2CC(C)Sc3ccccc32)cc1 (stereo not drawn),inactive: 80%
20,Cc1cc(C=C(C#N)C#N)c(C)n1-c1ccc(S(N)(=O)=O)cc1,inactive: 118%

row,SMILES,survival
1,Cc1cccc(C)c1NC(=O)C1CCCN(S(=O)(=O)c2c(C)noc2/C=C/N(C)C)C1 (stereo not drawn),inactive: 71%
2,COc1ccc(S(=O)(=O)NCC(c2ccco2)S(=O)(=O)c2ccc(C)cc2)cc1C (stereo not drawn),inactive: 101%
3,Cc1ccc(-c2nc3scc(CCNS(=O)(=O)c4ccc(C)c(C)c4)n3n2)cc1,inactive: 55%
4,Cc1ccc(-c2noc(-c3cccnc3NCc3ccc(Cl)cc3)n2)cc1,inactive: 88%
5,Cc1cccc(OCC(=O)Nc2ccc(C(=O)OCc3cc(=O)n4nc(C5CC5)sc4n3)cc2)c1,active: -4%
6,COC(=O)c1ccc(NC(=O)CSc2ccc(-c3cccs3)nn2)cc1,inactive: 89%
7,CCOC(=O)c1cc(-c2ccc(C)cc2)n(CCC(=O)NCc2ccccc2)c1C,inactive: 125%
8,O=C(NCCc1nc2ccccc2n1CCOc1ccc(Cl)cc1)C1CCCCC1,inactive: 20%
9,COc1ccc2cc(S(=O)(=O)c3ccccc3F)c(=O)oc2c1,inactive: 73%
10,CCc1ccc(NC(=O)C(Cc2ccccc2)NS(=O)(=O)c2ccc3c(c2)CCN3C(C)=O)cc1 (stereo not drawn),inactive: 97%
11,Cc1cc(C)c(NC(=O)c2cc(CN3CCOCC3)on2)c(C)c1,inactive: 67%
12,C=CC(=O)NCC1OCCc2ccccc21 (stereo not drawn),inactive: 110%
13,CCOc1ccc(Sc2cc(C(=O)NCCCOC)c3ccccc3n2)cc1,inactive: 92%
14,C#CCOc1ccc(C2C(C(=O)OC)=C(C)NC3=C2C(=O)c2ccccc23)cc1OCC (stereo not drawn),inactive: 102%
15,CN1CCN(C(=O)c2cnn(-c3cccc(F)c3)c2C2CCN(C(=O)OC(C)(C)C)CC2)CC1,inactive: 72%
16,CCc1cccc2c(=O)c(C(=O)N3CCCCC3)c[nH]c12,inactive: 101%
17,N#Cc1ccccc1NC(=O)CC1Nc2ccccc2NC1=O (stereo not drawn),inactive: 105%
18,Cc1ccc(C)c(CSc2c(C(C)C)cnc3c2c(=O)n(C)c(=O)n3C)c1,inactive: 126%
